Where “and” joins values, the source holds several entries; their conditions need not be identical. Equal entries are not always repeated. About 6,400 (1.6%) of roughly 410,000 compounds were called active. This list was built around the results that the source calls inconclusive (neither active nor inactive); the mix of calls is not that of the screen. The call rests on the fitted dose curve; in most records, active means well fitted inhibition curve with a large enough effect; inconclusive means small, poorly fitted or top-dose-only effect; inactive means no such curve, though single readings can be large or run the other way. Potencies beside an inconclusive call are fits to weak or partial responses and may not hold up.
Each molecule was assayed against Glucagon-like peptide 1 receptor (Homo sapiens) (UniProt P43220) (assay: qHTS of GLP-1 Receptor Inverse Agonists (Inhibition Mode)). Settings: HEK293 GLP-1R CRE-luciferase, luminescence, 24 h, GLP-1R form is constitutively active; activity change, negative = inhibition: at 38.3 µM (top of the series) unless noted.
UniProt P43220, sequence (P43220 whole entry, looked up): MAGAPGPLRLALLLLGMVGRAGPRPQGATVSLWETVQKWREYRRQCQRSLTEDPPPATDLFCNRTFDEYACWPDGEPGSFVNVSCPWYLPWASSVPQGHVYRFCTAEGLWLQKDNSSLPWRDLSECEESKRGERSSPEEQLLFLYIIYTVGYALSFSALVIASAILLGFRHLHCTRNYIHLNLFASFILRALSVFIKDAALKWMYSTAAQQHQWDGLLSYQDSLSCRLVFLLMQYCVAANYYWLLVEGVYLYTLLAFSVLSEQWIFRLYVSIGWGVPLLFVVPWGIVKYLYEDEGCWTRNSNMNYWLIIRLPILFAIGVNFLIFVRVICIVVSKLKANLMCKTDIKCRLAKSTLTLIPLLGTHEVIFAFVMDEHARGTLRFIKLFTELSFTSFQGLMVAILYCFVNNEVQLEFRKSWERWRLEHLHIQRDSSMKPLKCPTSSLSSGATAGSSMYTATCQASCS
How it was run: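 Inverse agonists were sought by their lowering of basal cAMP reporter luciferase output in HEK293 cells stably carrying constitutively active human GLP-1R, after 24 h compound treatment.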
Further: nearly all actives have a fitted effect of over 55% in size.
On the % scale 0 is the no-effect control and ±100 the full control effect; potency means the concentration at half of the fitted maximal effect; tags describe the fitted curve by direction and shape.

Potency, inconclusive:
CC(/C=C/c1ccco1)=N\NC(=O)CNc1ccc2ccccc2c1 5.62 µM [inhibitor, partial curve, poor fit], COCCNC(=S)N/N=C(\C)c1cc2ccccc2o1 10 µM [inhibitor, partial curve, poor fit], O=C(N/N=C/c1ccsc1)c1cc(-c2ccncc2)nc2ccccc12 5.01 µM [inhibitor, partial curve], Cc1ccc(C(=O)N2CCc3cc(CNC(=O)CSc4ccccc4)ccc32)cc1 28.2 µM [inhibitor, single point], Cc1ccc(-c2ccnc3c(Br)c(C)nn23)cc1 12.6 µM [inhibitor, single point], CCN(c1cccc(C)c1)S(=O)(=O)c1ccc(-n2cccn2)cc1 11.2 µM [inhibitor, partial curve, poor fit] and 12.6 µM [inhibitor, partial curve, poor fit], Cc1ccc(S(=O)(=O)N2CCC(C(=O)Nc3ccc(S(=O)(=O)N4CCCC4)cc3)CC2)cc1 28.2 µM [inhibitor, single point], CC(C)C(=O)Nc1cccc(COc2cccc(CN(Cc3ccccc3)C(=O)OC(C)(C)C)c2)c1 7.94 µM [inhibitor, partial curve, poor fit], c1ccc(Cn2nnc3c(N4CCC5(CC4)OCCO5)ncnc32)cc1 12.6 µM [inhibitor, partial curve], Cc1nc2ccccn2c1-c1csc(Nc2cccc(O)c2)n1 10 µM [inhibitor, single point], COc1cccc2cc(C(C)N(CCCN3CCOCC3)C(=O)Nc3ccc(Cl)cc3)oc12 (configuration not stated) 10 µM [inhibitor, partial curve, poor fit], CCN(CC(=O)NCc1cccs1)C(=O)/C=C/c1cc(OC)ccc1OC 5.01 µM [inhibitor, partial curve, poor fit], O=C(NCCOc1ccccc1)c1cccc(S(=O)(=O)NCc2ccccc2)c1 28.2 µM [inhibitor, single point], Oc1ccc(/C=N/Nc2ncc(Cl)cc2Cl)cc1 28.2 µM [inhibitor, single point], O=C(CSc1nc(-c2ccccc2)c(-c2ccccc2)[nH]1)N1CCN(S(=O)(=O)c2ccccc2)CC1 12.6 µM [inhibitor, single point], O=C(c1cnn2c1NC(c1ccc(Br)cc1)CC2C(F)(F)F)N1CCN(C23CC4CC(CC(C4)C2)C3)CC1 (configuration not stated) 1 µM [inhibitor, full curve, poor fit], O=C([O-])c1cc(-c2ccccc2)cc(-c2ccccc2)[n+]1CCc1ccc(Cl)cc1 17.8 µM [inhibitor, partial curve, poor fit], Cc1cccc(NC2=Nc3ccccc3N3C2=Nc2c(c(C)nn2-c2ccccc2)C3c2ccc(O)c(O)c2)c1 (configuration not stated) 10 µM [inhibitor, partial curve, poor fit], CCCCN(C)CCCN1C(=O)C2C(C(=O)Nc3cccc(OC)c3)C3C=CC2(O3)C1C(=O)NC1CCCCC1C (configuration not stated) 28.2 µM [inhibitor, single point], O=C(O)c1ccccc1C(=O)c1ccc2c(c1)N(Cc1ccc(Cl)c(Cl)c1)C(=O)CO2 22.4 µM [inhibitor, partial curve, poor fit], O=c1cc2c(nn1Cc1ccc(Cl)cc1Cl)-c1ccccc1CC2 28.2 µM [inhibitor, single point], CC/C(=N\Nc1ccc([N+](=O)[O-])cc1)c1ccccc1 12.6 µM [inhibitor, single point], O=C(O)c1cc([N+](=O)[O-])cc([N+](=O)[O-])c1N1CCN(c2cccc(C(F)(F)F)c2)CC1 28.2 µM [inhibitor, single point], CCCC(=O)Nc1ccc(-c2csc(N/N=C\c3ccncc3)n2)cc1 12.6 µM [inhibitor, single point], CCN(c1cccc(C(F)(F)F)c1)S(=O)(=O)c1ccc2c(c1)CCN2C(=O)C1CC1 12.6 µM [inhibitor, partial curve, poor fit], COc1cc(OC)cc(OC2(C)CCN(Cc3ccc(OC(C)C)cc3)C2)c1 (configuration not stated) 11.2 µM [inhibitor, single point]

Potency, active:
CCOC(=O)N1CCN(C(=O)c2ccccc2CCc2ccccc2)CC1 8.91 µM, O=C(NCCc1csc(-c2ccc(C(F)(F)F)cc2)n1)c1ccc(F)c(F)c1 10 µM

Activity change, negative = inhibition, inactive:
COc1ccc(NC(=O)CCN2CCC(C)CC2)cc1 6.04%, Cc1ccc(NC(=O)CN2C(=O)N/C(=C\c3cccn3-c3cccc(C(=O)O)c3)C2=O)cc1 -0.133%, CN1CCC(N(C)S(=O)(=O)c2ccc(Cl)cc2)CC1 -14.8%, NC(=S)N/N=C/c1coc2cc(Cl)ccc2c1=O 8.08%, Cc1occc1C(=O)Nc1ccc2c(c1)OCO2 15.9%, Clc1ncn(CCOc2ccccc2)c1Cl 15.4% [at 0.307 µM], O=C(NNCc1ccc(O)cc1)c1ccccc1Cl -7.11%, CCCCOc1ccc(C(=O)NC)cc1 3.52%, COc1ccc(/C=N/NC(=O)CN2CCS(=O)(=O)CC2)cc1 8.44%, O=C(NCc1cccs1)c1nn(-c2ccccc2Cl)nc1CO 7.39%, COC(=O)c1c(-c2ccc(OC)cc2)oc2ccc(-c3ccc(OC)nc3)cc12 7.12%, Cc1cc(O)ccc1Nc1cc(-c2cccc(N(C)C)c2)ncn1 15.7%, COCCCNC(=O)C[C@H]1C[C@H](C(=O)N(C(C)C)C(C)C)[C@@]2(C)c3[nH]c4ccc(Cl)cc4c3CCN2C1=O -2.57%, NC(=S)N/N=C/c1cc([N+](=O)[O-])ccc1Cl 1.94%

— PubChem BioAssay AID624417 (National Center for Advancing Translational Sciences (NCATS), 2012)
